Some of the results follow.

In this experiment the target is T1, OsWOX13 (Oryza sativa, UniProt Q5QMM3 1-267).
T1 sequence: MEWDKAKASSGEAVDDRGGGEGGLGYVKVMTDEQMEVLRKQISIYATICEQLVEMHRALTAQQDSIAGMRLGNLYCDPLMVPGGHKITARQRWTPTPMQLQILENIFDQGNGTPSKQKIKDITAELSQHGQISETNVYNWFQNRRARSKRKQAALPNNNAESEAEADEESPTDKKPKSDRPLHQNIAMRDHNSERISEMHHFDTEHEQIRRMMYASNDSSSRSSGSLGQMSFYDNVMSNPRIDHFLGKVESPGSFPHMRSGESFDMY
Put plainly: protein-binding microarray (RPBM); PBS, 2% BSA, 51.3 ng/ul salmon testes DNA, 50 uM zinc acetate, 200 nM TF, 25 C, 1 h; high values mean tight binding. The note with it: protein: recombinant; tags: N-terminal polyhistidine and DsRed monomer fusion (pET32a); label: CyDye5-dUTP incorporated in the synthesized complementary strand; 3' TTTTT single-stranded linker to array surface; dsDNA, one strand shown. A digest of the protocol: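 A custom Agilent array was converted to double-stranded form by primer extension with Cy5-dUTP and blocked with 2% BSA. Protein at 200 nM in PBS with 2% BSA, salmon testes DNA and 50 µM zinc acetate was applied for 1 h at 25 °C, followed by washing. The proteins were polyhistidine–DsRed N-terminal fusions of transcription factors, expressed in E. coli BL21-CodonPlus and Ni–NTA-purified. The binding signal is per-feature fluorescence intensity (arbitrary units) from an Axon 4000B scanner.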
In the case of “AAATAAATTAACTATTATACATGACTCTGGACAAATACATCGGAGTCACCTAGTGCAG”, the binding signal is 28500 fluorescence intensity (a.u.).
Consider “TAGCAAATCATAATTTCTACCGTGACGGGCGACGACACTACGGAGTCACCTAGTGCAG”, for which the binding signal is 13500 fluorescence intensity (a.u.).
The figure for “AATAGATCACCCCTAATTACAATAGAGTACTGTAAAAGGGCGGAGTCACCTAGTGCAG” is 7320 fluorescence intensity (a.u.); for “CCGGATTGCTGGATCATTTTCTTCTCGGCCCATTGGACTCCGGAGTCACCTAGTGCAG” it is 3410 fluorescence intensity (a.u.).
As for “TTTTAAATATCCAAAATTGATTTTGGATAACTACTCGACACGGAGTCACCTAGTGCAG”, the binding signal is 17200 fluorescence intensity (a.u.).
For “GCTCTGACTGTCTGATACATCATTTGCGAGCTGAGAGAAACGGAGTCACCTAGTGCAG”, the binding signal was 4530 fluorescence intensity (a.u.).
“ACTCCATTATTGATTCTTGCAAGGAGGAAGAGCAGCTAGACGGAGTCACCTAGTGCAG”: the binding signal was 6420 fluorescence intensity (a.u.).
For “GTGTAATTTATGAAACTTACACTGTAACTTTTGTAAGTTACGGAGTCACCTAGTGCAG”, the binding signal was 18100 fluorescence intensity (a.u.).
Consider “ACGATTCCCAATCAAAGCCCCAAACAACCATCATGCACAACGGAGTCACCTAGTGCAG”, for which the binding signal was 5890 fluorescence intensity (a.u.).
For the sequence “AAGAGAAAGTGGTAATTAGCGGGAACTATTCAAAGCTCTCCGGAGTCACCTAGTGCAG”, the binding signal is 5320 fluorescence intensity (a.u.).
On to “ATTTGGATTGAAGCCAAAATTTGCCCATAAGAGATAAGTTCGGAGTCACCTAGTGCAG”, for which the binding signal was 7690 fluorescence intensity (a.u.).
The figure for “CAGAAACCTCGCGAATTGATTGCTCCAGCTTATGATTGCCCGGAGTCACCTAGTGCAG” is 19800 fluorescence intensity (a.u.); for “CTTCACTCAATAACAAATTATACCCACACACATACCCATCCGGAGTCACCTAGTGCAG” it is 5440 fluorescence intensity (a.u.); for “TCTGATTAATTTGACGGCCACAAAATACTTAGTTTGGCAACGGAGTCACCTAGTGCAG” it is 65000 fluorescence intensity (a.u.).
Under “CTTAATTTGTTGCTGTTCTGTTTAGGGGATAGGTTAGTCCCGGAGTCACCTAGTGCAG” stands 33800 fluorescence intensity (a.u.); under “ATTTAATTATCTCTCTATACACATGCACTGTACATGTATTCGGAGTCACCTAGTGCAG”, 15300 fluorescence intensity (a.u.).
The figure for “CGTTAATCGTTGTGATTGATGTCGGATATGTTTGCCACCACGGAGTCACCTAGTGCAG” is 58600 fluorescence intensity (a.u.); for “TTAAACAAAATTGTGTTTCGATTTCCTAAAATACGATTCACGGAGTCACCTAGTGCAG” it is 3170 fluorescence intensity (a.u.).
Regarding “TCTTCAATCAGACACACTCTCTTTCTTCCCTTCCAAGGCGCGGAGTCACCTAGTGCAG”, the binding signal was 25300 fluorescence intensity (a.u.).
In the case of “ACTAATGTGAATTTGAATGTTAACATGTTACGCCAGTCAACGGAGTCACCTAGTGCAG”, the binding signal is 12200 fluorescence intensity (a.u.).
The figure for “CTCAATGATAATGATACCTAATTAAAACGTAGTTTTCCCACGGAGTCACCTAGTGCAG” is 6480 fluorescence intensity (a.u.); for “TTATGATGAGAAGTTAATACTCAAGATTACCATGAAGACTCGGAGTCACCTAGTGCAG” it is 5000 fluorescence intensity (a.u.); for “AAGTCTAATTTATCTCCCTGTTGCTACAGTAGCTTCTTCACGGAGTCACCTAGTGCAG” it is 3890 fluorescence intensity (a.u.).
The figure for “TCTATCTAATTTAGCTAGTCAAACAGTCTTTTACTCCAACCGGAGTCACCTAGTGCAG” is 4690 fluorescence intensity (a.u.); for “ATAAGATAATAAATTAGATAAACGGAACATAAATAAGGCTCGGAGTCACCTAGTGCAG” it is 10800 fluorescence intensity (a.u.).
Take “CTAATTGCTACCCTCTAAACTGTTACAACATAATCTTTGGCGGAGTCACCTAGTGCAG”: the binding signal was 13900 fluorescence intensity (a.u.).
Under “AGCTGAGAGTGATTGCTTGACAAAAGAATTAGGACTCAGGCGGAGTCACCTAGTGCAG” stands 19900 fluorescence intensity (a.u.).
The figure for “AATGACTGATGTATGTGCGTATAGCGAGAAAGAGGAGAGTCGGAGTCACCTAGTGCAG” is 15900 fluorescence intensity (a.u.).
With “ATTTAAGTGCTAAATTAGTAATTTAATCCCACTAGGAAGCCGGAGTCACCTAGTGCAG”, the binding signal is 23800 fluorescence intensity (a.u.).
Regarding “GCAAGATTAATTGTTTTGCTAACTTGAACTATCTAGAAGTCGGAGTCACCTAGTGCAG”, the binding signal is 30700 fluorescence intensity (a.u.).
Under “GGAAATGATTGGTACATTGAAGATAGGAGTACCCTTGAAGCGGAGTCACCTAGTGCAG” stands 48300 fluorescence intensity (a.u.); under “CCTATAATATAACTTTGCTATTAATTAGGGGTATTTTGGTCGGAGTCACCTAGTGCAG”, 6250 fluorescence intensity (a.u.).
As for “GCCAAGCCAAATGAATGATTGCTGTGGTGAAGGGCGACTACGGAGTCACCTAGTGCAG”, the binding signal is 3830 fluorescence intensity (a.u.).
Under “GTAACTTCGGAACAATTGATTGTACTGTAGGGGTGGGATTCGGAGTCACCTAGTGCAG” stands 7990 fluorescence intensity (a.u.); under “ATGCATGCATGCAGATTAATTAGTGCATTGACACAAGTGTCGGAGTCACCTAGTGCAG”, 4350 fluorescence intensity (a.u.); under “CTTATTCAAGATTTATATAATTATCATTTATTTTATTGGGCGGAGTCACCTAGTGCAG”, 5050 fluorescence intensity (a.u.).
For “CGAGTGACGAGGTCTTGGGTTGGGGTAGGGGTGGGATGAGCGGAGTCACCTAGTGCAG”, the binding signal is 3960 fluorescence intensity (a.u.).
Take “ATAATGATGTGTTCTATTTAATTAGATCTACACTATGTTCCGGAGTCACCTAGTGCAG”: the binding signal was 14700 fluorescence intensity (a.u.).
The figure for “AAATAAATTTGTTTTCAAGATTTATGTTCGTGCAAATGATCGGAGTCACCTAGTGCAG” is 8040 fluorescence intensity (a.u.); for “GTTTTAAATTAATATATCTCGCGGAATATTAGAGCAAACGCGGAGTCACCTAGTGCAG” it is 12600 fluorescence intensity (a.u.).
With “CCTAATTAAGAAGAAGATACACATCGAGAGGGCGTTCTCGCGGAGTCACCTAGTGCAG”, the binding signal is 11100 fluorescence intensity (a.u.).
Under “TCGTATTTATGGCTAATTATTATTTCAGTGGTAGACGATTCGGAGTCACCTAGTGCAG” stands 6670 fluorescence intensity (a.u.).

Source of the values: article PMC7819943, “Rice protein-binding microarrays: a tool to detect cis-acting elements near promoter regions in rice”.
